Data on five molecules can be found in patent US20200181601A1 (INSTITUT PASTEUR, published 2020).

For experiment [1], the target named is T1, PulD-N, soluble monomeric fragment corresponding to the N-terminal region of PulD from Klebsiella oxytoca (Klebsiella oxytoca, UniProt P15644 28-264).
T1 construct: domain: N-terminal region of PulD; also called N-terminal domain of PulD
T1 sequence: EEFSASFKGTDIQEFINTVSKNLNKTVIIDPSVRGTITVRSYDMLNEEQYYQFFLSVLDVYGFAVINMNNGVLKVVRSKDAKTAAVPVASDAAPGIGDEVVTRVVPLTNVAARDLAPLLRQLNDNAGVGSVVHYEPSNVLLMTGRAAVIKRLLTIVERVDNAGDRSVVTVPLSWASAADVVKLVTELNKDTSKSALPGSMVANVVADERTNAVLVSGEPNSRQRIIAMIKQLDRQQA
Briefly: SPR kinetic analysis.

Experiment [2] addresses T1, PulD-N, soluble monomeric fragment …. Briefly: SPR (BIAcore), biotinylated PulD-N on streptavidin chip, global kinetic fit.
The target is the same in experiment [3]. Put plainly: SPR kinetics, 300 mM NaCl against the running buffer (data not shown).
For experiment [4] the target is unchanged. Briefly: competition SPR, free PulD-N as competitor.

B1: clone 6 (anti-PulD-N Sac7d variant from library 14, round 5) (designed binder)
chain: MRGSHHHHHHGSVKVKFVLGGEEKEVDTSKIRHVYRYGKHVTFSYDDNGKLGLGLVKEKDAPKELLDMLARAEREKKLN
notes: also called Sac7*6
Regarding B1, the Kd amounted to 0.13 nM in experiment [1] and 0.14 nM in experiment [4]. Moreover, the koff in experiment [2] turned out to be 0.0025 s⁻¹. In experiment [2], this molecule registered a kon of 1.9e+07 M⁻¹ s⁻¹. The “factor of reduction of the association kinetics at 300 mM NaCl” value (from here on “factor of reduction … at 300 mM NaCl”) in experiment [3] stood at 1.3 fold.

B2: clone 40 (anti-PulD-N Sac7d variant from library 14, round 5) (designed binder)
chain: MRGSHHHHHHGSVKVKFGEHGEEKEVDTSKIMSVVRFGKWVCFRYDDNGKAGYGAVLEKDAPKELLDMLARAEREKKLN
notes: also called Sac7*40
The molecule B2 displayed a Kd in experiment [1] of 0.6 nM. In addition, in experiment [2], the koff came to 0.014 s⁻¹ and the kon came out at 2.3e+07 M⁻¹ s⁻¹. In addition, in experiment [3], the “factor of reduction … at 300 mM NaCl” value came to 1.3 fold. Moreover, in experiment [4], binding was characterised by a dissociation constant (Kd) of 0.9 nM.

B3: clone 41 (anti-PulD-N Sac7d variant from library 14, round 5) (designed binder)
chain: MRGSHHHHHHGSVKVKFVMSGEEKEVDTSKIMSVVRFGKWVCFRYDDNGKAGYGAVLEKDAPKELLDMLARAEREKKLN
In experiment [1], B3 came in with a Kd of 0.61 nM. For the same molecule, in experiment [2], the koff was found to be 0.012 s⁻¹ and the kon amounted to 2e+07 M⁻¹ s⁻¹. The “factor of reduction … at 300 mM NaCl” value in experiment [3] was 1.3 fold. In experiment [4], the Kd was 1.1 nM.

B4: clone 33 (anti-PulD-N Sac7d variant from library 14, round 5) (designed binder)
chain: MRGSHHHHHHGSVKVKFTWYGEEKEVDTSKIMSVCRWGKRVAFSYDDNGKIDYGLVDEKDAPKELLDMLARAEREKKLN
notes: also called Sac7*33
For the molecule B4, the Kd in experiment [1] was 0.19 nM. In experiment [2], this molecule displayed a koff of 0.0032 s⁻¹ and a kon of 1.7e+07 M⁻¹ s⁻¹. For the same molecule, the “factor of reduction … at 300 mM NaCl” value in experiment [3] came out at 1.3 fold. Moreover, in experiment [4], the Kd stood at 0.17 nM.

B5: clone 39 (anti-PulD-N Sac7d variant from library 14, round 5) (designed binder)
chain: MRGSHHHHHHGSVKVKFCWEGEEKEVDTSKIRHVYRYGKYVTFSYDDNGKLGLGLVNEKDAPKELLDMLARAA
B5: the Kd in experiment [1] came out at 0.52 nM. In experiment [2], this molecule registered a koff of 0.0086 s⁻¹ and a kon of 1.7e+07 M⁻¹ s⁻¹. In addition, the “factor of reduction … at 300 mM NaCl” value in experiment [3] came to 1.3 fold. Besides, binding in experiment [4] was characterised by a dissociation constant (Kd) of 1.1 nM.
